The record followed here is article PMC9911399, “Two distinct binding modes provide the RNA-binding protein RbFox with extraordinary sequence specificity”.

Numbering of substitutions follows the chain as printed; changes in the protein carry UniProt numbers. Some of the results follow.

The labels stand for the following.
T1: RBFOX1 RRM RbFoxmut (Fox-RRM*) (Homo sapiens, UniProt Q9NWB1 109-208, R118D;E147R;N151S;E152T)
T1 sequence: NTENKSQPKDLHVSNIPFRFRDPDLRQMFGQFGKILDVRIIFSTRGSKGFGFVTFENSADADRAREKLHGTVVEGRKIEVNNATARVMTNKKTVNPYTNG

B1: GAAUUGG (DNA:RNA)
RNA: GGGAGACCGGAAUUCAGAUUGUCCGAAUUGGUUAAAUCCCGUCGUAGCCACCA
DNA 1: CAATCTGAATTCCGGTCTCCC
DNA 2: TGGTGGCTACGACGGGATT
B2: CUUGAAG (DNA:RNA)
RNA: B1 RNA with G25C, A26U, A27U, U28G, U29A, G30A
DNA 1: CAATCTGAATTCCGGTCTCCC
DNA 2: TGGTGGCTACGACGGGATT
B3: UUUGAUC (DNA:RNA)
RNA: GGGAGACCGGAAUUCAGAUUGUCCUUUGAUCUUAAAUCCCGUCGUAGCCACCA
DNA 1: CAATCTGAATTCCGGTCTCCC
DNA 2: TGGTGGCTACGACGGGATT
B4: CUAUAGA (DNA:RNA)
RNA: B1 RNA with G25C, A26U, U29A, G31A
DNA 1: CAATCTGAATTCCGGTCTCCC
DNA 2: TGGTGGCTACGACGGGATT
B5: CAACGCA (DNA:RNA)
RNA: B1 RNA with G25C, U28C, U29G, G30C, G31A
DNA 1: CAATCTGAATTCCGGTCTCCC
DNA 2: TGGTGGCTACGACGGGATT
B6: AAGACGU (DNA:RNA)
RNA: B1 RNA with G25A, A27G, U28A, U29C, G31U
DNA 1: CAATCTGAATTCCGGTCTCCC
DNA 2: TGGTGGCTACGACGGGATT
B7: UUCAACA (DNA:RNA)
RNA: B3 RNA with U27C, G28A, U30C, C31A
DNA 1: CAATCTGAATTCCGGTCTCCC
DNA 2: TGGTGGCTACGACGGGATT
B8: AGGUAUA (DNA:RNA)
RNA: B3 RNA with U25A, U26G, U27G, G28U, C31A
DNA 1: CAATCTGAATTCCGGTCTCCC
DNA 2: TGGTGGCTACGACGGGATT
B9: AAAGAGA (DNA:RNA)
RNA: B1 RNA with G25A, U28G, U29A, G31A
DNA 1: CAATCTGAATTCCGGTCTCCC
DNA 2: TGGTGGCTACGACGGGATT
B10: GCAAAAA (DNA:RNA)
RNA: B1 RNA with A26C, U28A, U29A, G30A, G31A
DNA 1: CAATCTGAATTCCGGTCTCCC
DNA 2: TGGTGGCTACGACGGGATT
B11: AAUAUUA (DNA:RNA)
RNA: B1 RNA with G25A, A27U, U28A, G30U, G31A
DNA 1: CAATCTGAATTCCGGTCTCCC
DNA 2: TGGTGGCTACGACGGGATT
B12: CAGUGCU (DNA:RNA)
RNA: B1 RNA with G25C, A27G, U29G, G30C, G31U
DNA 1: CAATCTGAATTCCGGTCTCCC
DNA 2: TGGTGGCTACGACGGGATT
B13: CCGGGUA (DNA:RNA)
RNA: B3 RNA with U25C, U26C, U27G, A29G, C31A
DNA 1: CAATCTGAATTCCGGTCTCCC
DNA 2: TGGTGGCTACGACGGGATT
B14: GACGAUU (DNA:RNA)
RNA: B3 RNA with U25G, U26A, U27C, C31U
DNA 1: CAATCTGAATTCCGGTCTCCC
DNA 2: TGGTGGCTACGACGGGATT
B15: AUGUUCC (DNA:RNA)
RNA: B1 RNA with G25A, A26U, A27G, G30C, G31C
DNA 1: CAATCTGAATTCCGGTCTCCC
DNA 2: TGGTGGCTACGACGGGATT
B16: ACAUGAG (DNA:RNA)
RNA: B1 RNA with G25A, A26C, U29G, G30A
DNA 1: CAATCTGAATTCCGGTCTCCC
DNA 2: TGGTGGCTACGACGGGATT
B17: AAUAAAU (DNA:RNA)
RNA: B3 RNA with U25A, U26A, G28A, U30A, C31U
DNA 1: CAATCTGAATTCCGGTCTCCC
DNA 2: TGGTGGCTACGACGGGATT
B18: GAGGUGG (DNA:RNA)
RNA: B1 RNA with A27G, U28G
DNA 1: CAATCTGAATTCCGGTCTCCC
DNA 2: TGGTGGCTACGACGGGATT
B19: ACUGCAU (DNA:RNA)
RNA: B3 RNA with U25A, U26C, A29C, U30A, C31U
DNA 1: CAATCTGAATTCCGGTCTCCC
DNA 2: TGGTGGCTACGACGGGATT
B20: AUAAAGU (DNA:RNA)
RNA: B1 RNA with G25A, A26U, U28A, U29A, G31U
DNA 1: CAATCTGAATTCCGGTCTCCC
DNA 2: TGGTGGCTACGACGGGATT

The assay addresses T1, RBFOX1 RRM RbFoxmut (Fox-RRM*). The assay can be described thus: EMSA; HiTS-Eq, 1 nM pool, 10 min; buffer printed only for the single-RNA assays: 10 mM Tris pH 7.5, 150 mM NaCl, 3.4 mM EDTA, 0.001% NP-40, 30 C. To be noted: tags: His6 N-terminal (pET28a); label: 5' 32P. In short, it runs like this: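 Purified RbFox RRM (wild type or mutant) was equilibrated for 10 min in 50 µL with 1 nM of a 5′-radiolabelled pool of RNA with 7 randomized nucleotides, its flanks annealed to DNA oligonucleotides, across increasing protein concentrations. Free RNA was separated by 8% native PAGE, excised, reverse-transcribed, PCR-barcoded and sequenced on an Illumina HiSeq 2500. Relative association constants came from read-count changes of each variant against the control reaction, normalised to the cognate motif.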
Take B1: the binding signal is 0.087 KA relative to UGCAUGU.
As to B2, the binding signal is 0.093 KA relative to UGCAUGU.
Regarding B3, the binding signal was 0.0552 KA relative to UGCAUGU.
With B4, the binding signal is 0.0985 KA relative to UGCAUGU.
In the case of B5, the binding signal is 0.161 KA relative to UGCAUGU.
The same measure for B6: 0.0655 KA relative to UGCAUGU; for B7: 0.0825 KA relative to UGCAUGU.
With B8, the binding signal was 0.148 KA relative to UGCAUGU.
Turning to B9, the binding signal was 0.0972 KA relative to UGCAUGU.
Regarding B10, the binding signal is 0.0956 KA relative to UGCAUGU.
As for B11, the binding signal is 0.134 KA relative to UGCAUGU.
As to B12, the binding signal was 0.113 KA relative to UGCAUGU.
With B13 the figure was 0.146 KA relative to UGCAUGU; with B14, 0.063 KA relative to UGCAUGU; with B15, 0.091 KA relative to UGCAUGU.
For the molecule B16, the binding signal is 0.117 KA relative to UGCAUGU.
B17: the binding signal is 0.0355 KA relative to UGCAUGU.
As for B18, the binding signal was 0.0993 KA relative to UGCAUGU.
With B19 the figure was 0.13 KA relative to UGCAUGU; with B20, 0.114 KA relative to UGCAUGU.
